{
  "source": "PubChem BioAssay AID1240",
  "about": "(Sanford-Burnham Center for Chemical Genomics, 2008)",
  "note": "Screen size: about 50,000 compounds; about 800 (1.6%) showed an effect of 50% or more. This is one part of the list.",
  "data": [
    {"molecular_target": "Bcl-2-like protein 10 (Homo sapiens) (UniProt Q9HD36)", "sequence (Q9HD36 whole entry, looked up)": "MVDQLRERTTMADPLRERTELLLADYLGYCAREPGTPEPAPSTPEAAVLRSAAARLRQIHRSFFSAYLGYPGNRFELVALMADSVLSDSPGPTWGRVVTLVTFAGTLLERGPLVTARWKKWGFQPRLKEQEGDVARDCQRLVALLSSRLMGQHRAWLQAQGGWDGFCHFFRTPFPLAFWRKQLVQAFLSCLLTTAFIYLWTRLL", "experiment": "TR3 peptide-Bcl-B binding displacers, biochemical primary FP assay, phenotype converters (AID 1240);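 note: 0% = Bcl-B with tracer peptide and DMSO and 100% = tracer peptide lacking Bcl-B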", "conditions": "GST-Bcl-B / FITC-TR3 peptide fluorescence polarization; stronger effect = higher value; compound at 3.75 mg/L", "units": {"displacement": "%"}, "values": [
      {"compound": "COc1cc([N+](=O)[O-])ccc1NC(=O)c1cccc(F)c1", "displacement": 14.9},
      {"compound": "CC1(C)C(C=C(Cl)Cl)C1C(=O)ON1C(=O)CCC1=O", "note": "(stereo unspecified)", "displacement": -7.2},
      {"compound": "O=C(Nc1ccn(-c2ccccc2)n1)c1ccc(Cl)cc1", "displacement": 5},
      {"compound": "CCOc1ccc(C(=O)N2CCN(c3ccc([N+](=O)[O-])cc3Cl)CC2)cc1", "displacement": -7},
      {"compound": "O=C(Nc1ccncc1)c1ccccc1Oc1ccccc1", "displacement": -8.2},
      {"compound": "Cc1ccc2nc(-c3ccc(N=Cc4cccc(O)c4O)cc3)sc2c1", "displacement": -3},
      {"compound": "O=c1oc(-c2cccs2)nc2cc([N+](=O)[O-])ccc12", "displacement": 1.1},
      {"compound": "CC1=C(C(=O)OCc2ccccc2)C(c2sccc2C)NC(=S)N1", "note": "(stereo unspecified)", "displacement": 12.6},
      {"compound": "COc1ccc(C2C(C(=O)OC(C)C)=C(C)N=c3s/c(=C\\c4cc(OC)ccc4OC)c(=O)n32)cc1", "note": "(stereo unspecified)", "displacement": 6.4},
      {"compound": "O=C(Nc1ccc(Br)cc1C(=O)O)c1cccc(N2C(=O)c3ccccc3C2=O)c1", "displacement": -9.5},
      {"compound": "N#C/C(=C\\c1cc(I)cc(I)c1O)c1ccc([N+](=O)[O-])cc1", "displacement": -8.1},
      {"compound": "c1ccc(-c2cc(-c3ccccc3)nc(N3CCCCC3)n2)cc1", "displacement": -6.8},
      {"compound": "COc1ccc(CNC(=O)c2ccc([N+](=O)[O-])cc2)cc1", "displacement": 7.3},
      {"compound": "O=[N+]([O-])c1ccc(N2CCN(CCO)CC2)cc1NCc1ccc(Cl)cc1", "displacement": -15.1},
      {"compound": "COc1cc2c(cc1NC(=O)c1ccc3ccccc3n1)oc1ccccc12", "displacement": 39.5},
      {"compound": "COC(=O)CC12CC3CC(C1)CC(c1ccc([N+](=O)[O-])cc1)(C3)C2", "displacement": -4.1},
      {"compound": "COC(=O)C1=C(C)NC2=C(C(=O)CC(c3ccc4c(c3)OCO4)C2)C1c1ccccc1F", "note": "(stereo unspecified)", "displacement": 9.5},
      {"compound": "O=[N+]([O-])c1ccccc1S(=O)(=O)Nc1ccc(S(=O)(=O)N2CCOCC2)cc1", "displacement": 6.5},
      {"compound": "O=C(NCCNc1ccc([N+](=O)[O-])cc1)c1cccc2c(Br)cccc12", "displacement": -6.5},
      {"compound": "COc1cccc(/C=C2\\SC(=S)N(CCC(=O)Nc3cccc(OC)c3)C2=O)c1", "displacement": 14.9},
      {"compound": "CCOc1ccc(NC(=O)CN(c2ccc(F)cc2)S(=O)(=O)c2ccccc2)cc1", "displacement": 2.8},
      {"compound": "COc1cc(C2=N/C(=C\\N(C)C)C(=O)O2)cc(OC)c1OC", "displacement": 9.2},
      {"compound": "CS(=O)(=O)NCCNc1cc(Cl)ccc1[N+](=O)[O-]", "displacement": 9.6},
      {"compound": "C/C(=N/N)c1ccc(-c2ccccc2)cc1", "displacement": 14.9},
      {"compound": "COc1ccc(NC(=O)c2sc3nccc(=O)n3c2C(=O)O)cc1", "displacement": 3.9},
      {"compound": "COc1cccc(Oc2nc(N)[nH]c(=O)c2I)c1", "displacement": -55.6},
      {"compound": "O=C(CN(c1ccccc1)S(=O)(=O)c1ccccc1[N+](=O)[O-])Nc1ccc(Cl)cc1", "displacement": 4.6},
      {"compound": "O=C(NC(=O)c1ccc2ccccc2n1)NC(c1ccccc1)c1ccccc1", "displacement": 4.4},
      {"compound": "Cc1sc(NC(=O)c2ccco2)c(C#N)c1C", "displacement": 8.5},
      {"compound": "Cc1c(-c2nc(-c3ccncc3)no2)cccc1[N+](=O)[O-]", "displacement": 0.7},
      {"compound": "CC1=C(C(=O)OC2CCCCC2)C(c2cccnc2)C2=C(CCCC2=O)N1", "note": "(stereo unspecified)", "displacement": -1.5},
      {"compound": "COC(=O)c1cc(-c2ccc(Cl)s2)nc2ccccc12", "displacement": 2.8},
      {"compound": "Cc1c(NC(=O)CCCN2C(=O)c3cccc4cccc(c34)C2=O)c(=O)n(-c2ccccc2)n1C", "displacement": 10.4},
      {"compound": "COC(=O)c1cc(Cl)c(NC(=O)c2ccco2)cc1OC", "displacement": -1.2},
      {"compound": "COc1ccc(OCC(=O)NS(=O)(=O)c2ccccc2)cc1", "displacement": 3.9},
      {"compound": "CCOc1ccc(C(=O)N2CCc3ccccc3C2)cc1OCC", "displacement": 9.8},
      {"compound": "O=C1CC(N(Cc2ccccc2)Cc2ccccc2)C(=O)N1c1ccc(Cl)cc1", "note": "(stereo unspecified)", "displacement": 11.8},
      {"compound": "CCOc1cccc(-c2cc(C(=O)N3CC(C)CC(C)C3)c3ccccc3n2)c1", "note": "(stereo unspecified)", "displacement": -16},
      {"compound": "O=C(CSc1cc(Cl)ccc1Cl)Nc1cccc(C(F)(F)F)c1", "displacement": 17.4},
      {"compound": "COc1cccc(-n2c(/C=C/c3cn(C)c4ccccc34)nc3ccccc3c2=O)c1", "displacement": 22.6},
      {"compound": "COC1=CC(CC(=O)c2ccc(OC)c(OC)c2)C(C(=O)c2ccccc2Cl)C=C1OC", "note": "(stereo unspecified)", "displacement": 1.8},
      {"compound": "COc1ccc(Br)cc1C(=O)Nc1ccc(C(C)=O)cc1", "displacement": 7.5},
      {"compound": "COc1ccc(N(CC(=O)NCc2ccccc2)S(=O)(=O)c2ccc(C)cc2)c(OC)c1", "displacement": 10.4},
      {"compound": "CCOC(=O)C1=C(N)OC2=C(C(=O)CC(c3ccccc3Cl)C2)C1c1ccccc1Cl", "note": "(stereo unspecified)", "displacement": -7.4},
      {"compound": "O=C(Nc1c(-c2cccs2)nc2ccccn12)c1ccc(Cl)cc1", "displacement": 7.8},
      {"compound": "O=C(Nc1ccc(S(=O)(=O)N2CCCCC2)cc1)c1ccc(F)cc1", "displacement": 5.1},
      {"compound": "Cc1cccc(OCC(=O)Nc2ccc3c(c2)OCO3)c1C", "displacement": 9.6},
      {"compound": "COc1ccc(OC)c(NC2=C(Cl)C(=O)N(c3ccc(Br)cc3)C2=O)c1", "displacement": -5.1},
      {"compound": "CCOC(=O)c1c(NC(=O)Nc2ccccc2)sc2c1CCCCCC2", "displacement": -6.8},
      {"compound": "O=C(c1ccc(-c2ccc([N+](=O)[O-])cc2)o1)N1CCOCC1", "displacement": 6.7},
      {"compound": "NS(=O)(=O)c1ccc(-c2ccc(/C=C3\\SC(=S)N(CCc4ccccc4)C3=O)o2)cc1", "displacement": 9.1},
      {"compound": "O=C(CSc1nsc(SCC(=O)Nc2nc(-c3ccccc3)cs2)n1)Nc1nc(-c2ccccc2)cs1", "displacement": 7.1},
      {"compound": "COc1ccc(C(=O)NCCC(c2ccccc2)c2ccccc2)cc1OC", "displacement": -10.6},
      {"compound": "COC(=O)C1=C(C(=O)OC)SC(=C2C(=S)C(C)(C)N(C(=O)c3ccccc3)c3cc(OC)ccc32)S1", "displacement": 5},
      {"compound": "CCOc1ccc(C(=S)N2CCOCC2)cc1", "displacement": -10.9},
      {"compound": "COc1ccc(N2C(=O)NC(=O)/C(=C\\c3ccc(-c4ccccc4C(=O)O)o3)C2=O)cc1", "displacement": -88.8},
      {"compound": "c1ccc2cc3[nH]c(CN4CCCCC4)nc3cc2c1", "displacement": 9},
      {"compound": "Cc1cccc(NC(=O)c2cc(Cl)ccc2[N+](=O)[O-])c1", "displacement": 5},
      {"compound": "COc1cc(NC(=O)COc2ccc(Cl)cc2Cl)ccc1NC(=O)c1ccco1", "displacement": -17.2},
      {"compound": "CCCOc1ccc(-c2ccc(-c3nc(-c4cc(OC)c(OC)c(OC)c4)no3)cc2)cc1", "displacement": -12.2},
      {"compound": "CC1(C)Cc2ccccc2/C(=C/C(=O)Nc2ccc([N+](=O)[O-])cc2)N1", "displacement": 1.4},
      {"compound": "COC(=O)CN1C(c2cc(OC)c(OC)c(OC)c2)Nc2ccc(C)cc2C1c1ccccc1", "note": "(stereo unspecified)", "displacement": 17.6},
      {"compound": "Cc1c(C(=O)Oc2ccc(Cl)cc2)cccc1[N+](=O)[O-]", "displacement": 12.3},
      {"compound": "Cc1ccc(OCC(=O)N2CCN(c3ccc([N+](=O)[O-])cc3)CC2)cc1C", "displacement": 12.4},
      {"compound": "Cc1cc2c(cc1C)NC(c1c(F)cccc1F)C1=C(CC(C)(C)CC1=O)N2", "note": "(stereo unspecified)", "displacement": 10.3},
      {"compound": "COc1ccc(CCNC(=O)c2ccc(I)cc2)cc1", "displacement": -10.7}
    ]}
  ]
}
